# Assay results from PubChem BioAssay AID894 (National Center for Advancing Translational Sciences (NCATS), 2007).
# Hit rate of the full screen: of about 150,000 compounds, about 6,500 (4.3%) were called active. Inconclusive means that the source gave no clear call. Such entries were picked first, then a sample of the others. Calls follow the shape of the dose curve; as a rule, active = well fitted inhibition curve with a large enough effect (not every such curve was filed as active); inconclusive = small, poorly fitted or top-dose-only effect, or another doubt; inactive = no such curve, though single readings can be large or run the other way. No potency is given beside an inconclusive call; the fits are too rough.
# Biological target: 15-hydroxyprostaglandin dehydrogenase [NAD(+)] (Homo sapiens) (UniProt P15428)
# Test: qHTS Assay for Inhibitors of HPGD (15-Hydroxyprostaglandin Dehydrogenase)
# Conditions: purified HPGD, NADH fluorescence kinetic, PGE2 substrate; activity change, negative = inhibition: stronger effect = lower value
# Outline: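 NADH formation kinetics: reaction with 30 uM PGE2 and 1 mM NAD+ (final), 20 nM enzyme, Tris-HCl pH 8 with Tween 20, after 15 min compound preincubation at room temperature. Fluorescence change, last versus first of five reads.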
# % is scaled to controls: 0 for no effect and ±100 for the full control effect; potency is read from the fitted curve at half-maximal effect; tags tell the direction and shape of the fitted curve.
# Chain of UniProt P15428 (P15428 whole entry, looked up): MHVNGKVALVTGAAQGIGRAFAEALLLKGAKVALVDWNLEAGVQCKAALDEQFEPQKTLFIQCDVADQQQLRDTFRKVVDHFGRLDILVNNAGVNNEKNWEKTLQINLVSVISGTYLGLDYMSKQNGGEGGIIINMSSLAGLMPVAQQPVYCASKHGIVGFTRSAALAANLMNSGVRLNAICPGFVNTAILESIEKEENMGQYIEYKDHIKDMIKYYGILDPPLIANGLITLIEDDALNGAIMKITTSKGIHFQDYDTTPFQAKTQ
Structure (SMILES),"activity change, negative = inhibition",Potency
N#C/C(C(=O)N1CCCC1)=C1/N=C(N)c2ccccc21,inactive: -20.1%,
Cc1ccc2c(Cl)c(C(=O)NCc3cccnc3)sc2c1,,"inconclusive [inhibitor, single point]"
C/C=C/Cn1c(SCCCc2ccccc2)nc2c1c(=O)[nH]c(=O)n2C,inactive: -14.2%,
CC1=C(/C=C/C(C)=C/C=C/C(C)=C/C=O)C(C)(C)CCC1,inactive: -12.7%,
N/C(=N\OC(=O)CCC1CCCC1)c1cccnc1,inactive: -15.9%,
CN1Cc2cc(C(=O)c3ccccc3O)cnc2NC1=O,,active: 25.1 µM
CCN1CCN(CCCNC(=O)c2csc3c2CCCCC3)CC1,inactive: -6.53%,
COc1ccc(N2C(=O)CC(N3CCN(S(=O)(=O)c4c(F)cccc4F)CC3)C2=O)cc1OC (stereo not given),inactive: -17.5%,
CCC(=O)C(C(=O)OC)[C@H](CCc1ccccc1)NC(=O)OC (stereo not given in full),inactive: -6.26%,
Cc1cc2nn(-c3cccc4ccccc34)nc2cc1NC(=O)c1cccs1,,"inconclusive [inhibitor, partial curve]"
N#Cc1ccccc1Sc1ccccc1C(=O)OCC(=O)N1CCN(C(=O)c2ccco2)CC1,,"inconclusive [inhibitor, single point]"
CCOC(=O)C(C(C)=O)c1c(Br)c(O)c(O)c2c(C(=O)c3ccc(C)cc3)coc12 (stereo not given),,active: 7.94 µM
Cc1ccc(CN2CCN(/N=C/c3ccc(C(=O)O)cc3)CC2)cc1,inactive: -22.1%,
C=CCn1c(=O)n(CCOC)c(=O)c2sc3ccccc3c21,,"inconclusive [inhibitor, partial curve]"
Cn1c(=O)cc(SCC(=O)NCC2CCCO2)c2ccc(Cl)cc21 (stereo not given),,active: 14.1 µM
COc1cccc(-n2nnc3c(=O)n(CC(=O)N4CCC(Cc5ccccc5)CC4)cnc32)c1,inactive: -24.8%,
CCn1c(COc2ccc(C)cc2)nnc1SCC(=O)NNC(=O)c1ccc(OC)cc1,inactive: 0.678%,
Cc1nc(-c2cccnc2)sc1C(=O)Nc1cccc(C(F)(F)F)c1,inactive: -11.2%,
Cc1cc(C)c2c(N)c(C(=O)Nc3ncc(C)s3)sc2n1,,"inconclusive [inhibitor, partial curve]"
CN(C)c1ncc2nc(-c3cccs3)c(=O)n(C3CC3)c2n1,,"inconclusive [inhibitor, full curve]"
Cn1cnnc1SCc1ccc(-c2ccc(Br)cc2)o1,,"inconclusive [inhibitor, single point]"
ON1C(c2ccccc2C(F)(F)F)N(O)[C@H]2CCCC[C@H]21 (stereo not given in full),inactive: -1.77%,
CCCCNC(=O)CC1N=C2c3ccccc3N=C(SCC(=O)Nc3ccccc3C)N2C1=O (stereo not given),,"inconclusive [inhibitor, single point]"
Cc1noc(C)c1COC(=O)CCCOc1ccc(Cl)cc1Cl,,active: 17.8 µM
CCOC(=O)c1c(C)nc2c(c1-c1cc(OC)ccc1OC)C(=O)c1ccccc1-2,inactive: -25.1%,

Structure (SMILES),"activity change, negative = inhibition",Potency
Cc1ccccc1N/N=C/c1ccc(N2CCOCC2)cc1,,active: 28.2 µM
CC(Oc1ccc(Cl)cc1Cl)C(=O)/C=C/N(C)C (stereo not given),,active: 22.4 µM
Cc1cc(C)c(C#N)c(SCCS(=O)(=O)c2ccc(C(C)(C)C)cc2)n1,,active: 14.1 µM
CC1(C)Cc2c(c(-c3ccco3)nc3sc4c(NCCN5CCOCC5)ncnc4c23)CO1,,"inconclusive [inhibitor, partial curve]"
CCCc1cc(C(=O)OC)c(NC(=O)c2cc(C)on2)s1,inactive: -23.5%,
O=C(Nc1ccc(-c2nnc3n2CCCCC3)cc1)c1cc2ccccc2o1,,active: 2.24 µM
O=c1ccc(/C=C/c2ccccc2)nn1Cc1ccc(Cl)cc1Cl,,"inconclusive [inhibitor, partial curve]"
CCN(CC)c1ccc(/C=N/n2c(C)cc(C)cc2=O)cc1,,"inconclusive [inhibitor, partial curve]"
CC(C)(C)Cc1nnc(NS(=O)(=O)c2ccc(F)cc2)s1,,"inconclusive [inhibitor, single point]"
Cc1nc2nc(-c3ccccc3)cn2nc1C,,"inconclusive [inhibitor, partial curve]"
CCOC(=O)CNS(=O)(=O)c1cc(-c2n[nH]c(=O)c3ccccc23)ccc1C,,active: 3.55 µM
COc1ccc(/C=C(\C#N)C(=O)Nc2cc(S(=O)(=O)N3CCOCC3)ccc2N2CCCC2)cc1,,active: 12.6 µM
O=C(Nc1ccc(-c2nc3cccnc3s2)cc1)c1ccco1,,"inconclusive [inhibitor, partial curve]"
COc1ccc(-c2nc(C#N)c(NCc3ccc(C)cc3)o2)cc1OC,,"inconclusive [inhibitor, partial curve]"
Cc1ccc(C=Nc2ccccc2C(=O)Nc2ccccc2)cc1,,"inconclusive [inhibitor, partial curve]"
CCCCn1nc2cc(C(=O)N[C@H](C)C3CCCCC3)ccc2c1OCC,,"inconclusive [inhibitor, partial curve]"
COc1ccc(Cl)cc1NC(=O)Cc1c(F)cccc1Cl,inactive: -11.6%,
C[C@H](CCC(=O)O)[C@H]1CC[C@@H]2[C@H]3CC[C@H]4C[C@@H](O)CC[C@@]4(C)[C@H]3CC[C@]21C,inactive: 5.74%,
O=C(Nc1ccc(-c2nc3ccccc3o2)cc1)c1ccc2c(c1)OCO2,,"inconclusive [inhibitor, partial curve]"
Cc1ccc(-n2nnc3c(=O)n(Cc4cccc(C)c4)cnc32)cc1,,active: 3.98 µM
COC(=O)CCc1sc(NC2CCCCC2)nc1-c1ccc(OC)cc1,,active: 22.4 µM
CCOC(=O)c1c(NC(=S)Nc2ccccc2)sc(C)c1C,,active: 22.4 µM
S=c1[nH]nc(-c2ccc(Cl)cc2Cl)n1Cc1ccccc1,,active: 15.8 µM
OCc1csc(=Nc2ccccc2)n1-c1ccccc1,inactive: 3%,
N#Cc1c(C(F)(F)F)cc(-c2ccccc2)[nH]c1=O,,"inconclusive [inhibitor, partial curve]"
